Reference: PubChem BioAssay AID230 (DTP/NCI, 2004)
Inconclusive results and toxic doses are left out. Not every entry of the source has a single result; some have several. The list is limited to them. An entry can have further records. The values listed for one entry repeat one measurement in other runs, samples, wells, individuals or studies.

Tested on: C3H/He mice, Gardner lymphosarcoma 6C3HED ip, survival T/C
Assay: NCI In Vivo Anticancer Drug Screen. Data for tumor model Lymphosarcoma Gardner 6C3HED (intraperitoneal) in C3H/He mice
Details: endpoint: survival time, mean or median, schedule: Q01DX010 (ip), higher = longer survival
Description: The antitumor activity of compounds was measured in mice bearing transplantable tumors. Survival or tumor size were measured and the results are expressed as the measurement made in the treated group (T) divided by the measurement made in the vehicle treated control group (C). The tumor model used in this assay is Lymphosarcoma Gardner 6C3HED (intraperitoneal) in C3H/He mice

In the case of `CS(=O)(=O)OCCC(=O)N1CCN(C(=O)CCOS(C)(=O)=O)CC1`, the T/C (dose: 100.0 mg/kg/injection, vehicle: saline) is reported as 105 % of control and 165 % of control.
For `Nc1nc(N)c2nc(CNc3ccc(C(=O)NC(CCC(=O)O)C(=O)O)cc3)cnc2n1` (centres undefined), the T/C (dose: 0.2 mg/kg/injection, vehicle: other) was 120 % of control and 150 % of control.
With `NC(Cc1ccc(N(CCCl)CCCl)cc1)C(=O)O` (centres undefined) the T/C (dose: 2.5 mg/kg/injection, vehicle: saline) was 107 % of control and 150 % of control.
In the case of `Cc1cc2nc3c(=O)[nH]c(=O)nc-3n(CC(O)C(O)C(O)C(O)CO)c2cc1C` (centres undefined), the T/C (dose: 25.0 mg/kg/injection, vehicle: saline) is reported as 96 % of control and 302 % of control.
